In the supplement of paper PMC10369915:
Some of the results follow. Rule as the data show it: active = 3.2 or more and inactive = the rest. Most of these values are background signal.

B1: HCLS1_Y360_E361K (peptide)
chain: EEEPVYKAEPE
B2: HCN4_Y531_V534M (peptide)
chain: QYQEKYKQMEQ
B3: HCN4_Y554_D553N (peptide)
chain: QRIHNYYEHRY
B4: HCN4_Y554_D553N_YF (peptide)
chain: QRIHNYFEHRF
B5: HCN4_Y554_YF (peptide)
chain: QRIHDYFEHRF
B6: HDAC3_Y414_N411S (peptide)
chain: APSEFYDGDHD
B7: HDX_Y197_A193T (peptide)
chain: HTKKNYGNSSV
B8: HESX1_Y106 (peptide)
chain: RELSWYRGRRP
B9: HESX1_Y106_R109Q (peptide)
chain: RELSWYRGQRP
B10: HFE_Y342 (peptide)
chain: GAMGHYVLAER
B11: HGD_Y166_G161R (peptide)
chain: RNLLIYTEFGK
B12: HGD_Y249 (peptide)
chain: TVINKYQGKLF
B13: HGD_Y249_V245F (peptide)
chain: TFINKYQGKLF
B14: HGD_Y333_F329C_YF (peptide)
chain: TCRPPYFHRNC
B15: HGD_Y333_R330S (peptide)
chain: TFSPPYYHRNC
B16: HGD_Y333_R330S_YF (peptide)
chain: TFSPPYFHRNC
B17: HGD_Y334_N337D (peptide)
chain: FRPPYYHRDCM
B18: HGD_Y334_R330S (peptide)
chain: FSPPYYHRNCM
B19: HGD_Y334_R330S_YF (peptide)
chain: FSPPFYHRNCM

These binders were tested against SHP2 C-SH2 domain E139D (assay: enrichment score (SH2-bound / input frequency) (ratio); bacterial display of known human phosphotyrosine sites (pTyr-Var adds point mutants) read by sequencing; higher = stronger binding; tyrosines were phosphorylated by kinases first). Conditions: peptide library: pTyr-Var.
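Also: displayed peptides selected on beads carrying the immobilized SH2 domain, with library peptides lacking any tyrosine serving as negative controls.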

Enrichment score, inactive:
B1 0.41, B2 0.739, B3 2.6, B4 2.96, B5 2.71, B6 0.715, B7 0.552, B8 0.17, B9 0.367, B10 0.694, B11 0.651, B12 0.999, B13 1.1, B14 2.36, B15 0.842, B16 0.931, B17 2.21, B18 1.4, B19 1.34

These binders were tested against SHP2 C-SH2 domain wild-type in the same assay as above. Conditions: peptide library: pTyr-Var.

Enrichment score, inactive:
B1 0.57, B2 0.816, B3 2.03, B4 2.46, B5 1.81, B6 0.536, B7 0.522, B8 0.334, B9 0.343, B10 0.863, B11 1.04, B12 0.8, B13 0.973, B14 1.82, B15 0.862, B16 0.829, B17 2.34, B18 1.3, B19 1.18

The binders below were run against SHP2 N-SH2 domain L43F in the same assay as above. Conditions: peptide library: pTyr-Var.

Enrichment score, inactive:
B1 0.485, B2 0.49, B3 2.28, B4 2.38, B5 1.46, B6 0.624, B7 0.708, B8 0.198, B9 0.409, B10 0.674, B11 1.35, B12 0.782, B13 0.808, B14 1.81, B15 0.746, B16 0.838, B17 2.1, B18 1.17, B19 1.11

Each binder was assayed against SHP2 N-SH2 domain T42A in the same assay as above. Conditions: peptide library: pTyr-Var.

Enrichment score, inactive:
B1 0.343, B2 0.539, B3 1.99, B4 2.5, B5 1.5, B6 0.534, B7 0.414, B8 0.279, B9 0.27, B10 0.648, B11 1.48, B12 0.684, B13 0.954, B14 1.71, B15 0.645, B16 1.72, B17 2.06, B18 1.07, B19 0.956

These binders were tested against SHP2 N-SH2 domain T52S in the same assay as above. Conditions: peptide library: pTyr-Var.

Enrichment score, inactive:
B1 0.51, B2 0.788, B3 2.43, B4 2.65, B5 2.27, B6 0.694, B7 0.525, B8 0.208, B9 0.27, B10 0.626, B11 1.26, B12 0.674, B13 0.888, B14 1.95, B15 0.691, B16 1.11, B17 2.26, B18 1.03, B19 0.982

These binders were tested against SHP2 N-SH2 domain wild-type in the same assay as above. Conditions: peptide library: pTyr-Var.

Enrichment score, inactive:
B1 0.675, B2 0.879, B3 2.42, B4 2.65, B5 1.77, B6 0.597, B7 0.608, B8 0.289, B9 0.279, B10 0.829, B11 1.16, B12 0.898, B13 1, B14 1.53, B15 0.859, B16 1.06, B17 1.99, B18 1.47, B19 1.24
